We go through 32 variants from the GPR68 mutational scans of Howard et al. (2025).

Scores whose standard error is large were omitted. The source holds two more conditions with little spread; they are left out. Read del as a deletion of the residues named and ins as an insertion between two positions. For part of these data: The data file names ogerin without a concentration.

B1: GPR68, Q15743 (parent)
chain: MGNITADNSSMSCTIDHTIHQTLAPVVYVTVLVVGFPANCLSLYFGYLQIKARNELGVYLCNLTVADLFYICSLPFWLQYVLQHDNWSHGDLSCQVCGILLYENIYISVGFLCCISVDRYLAVAHPFRFHQFRTLKAAVGVSVVIWAKELLTSIYFLMHEEVIEDENQHRVCFEHYPIQAWQRAINYYRFLVGFLFPICLLLASYQGILRAVRRSHGTQKSRKDQIQRLVLSTVVIFLACFLPYHVLLLVRSVWEASCDFAKGVFNAYHFSLLLTSFNCVADPVLYCFVSETTHRDLARLRGACLAFLTCSRTGRAREAYPLGAPEASGKSGAQGEEPELLTKLHPAFQTPNSPGSGGFPTGRLA

In data set [1] the parent is B1. The experiment in a line: cAMP reporter score (Enrich2 score, wild type = 0); higher = more signal; HEK293T, FACS bins.
The variants in data set [2] derive from B1. The experiment in a line: surface expression score (Enrich2 score, wild type = 0); higher = more signal; HEK293T, FACS bins.

T313I: the cAMP reporter score in data set [1] (pH 5.5) was 0.077; in data set [1] (pH 6, modulator: ogerin), -0.171; in data set [1] (pH 6.5, modulator: ogerin), -0.498. Moreover, the surface expression score in data set [2] is -0.763.

As for T313del, the cAMP reporter score is -0.597 in data set [1] (pH 5.5); 0.294 in data set [1] (pH 6); 0.583 in data set [1] (pH 6, modulator: ogerin); 0.982 in data set [1] (pH 6.5, modulator: ogerin). Moreover, the surface expression score in data set [2] is 0.05.

Regarding A316Y, the cAMP reporter score in data set [1] (pH 5.5) was 1.06; in data set [1] (pH 6) it was -0.332; in data set [1] (pH 6, modulator: ogerin), 0.965; in data set [1] (pH 6.5, modulator: ogerin), 0.121. The surface expression score in data set [2] is -0.181.

On to A316N, for which the cAMP reporter score was 0.026 in data set [1] (pH 5.5); -0.128 in data set [1] (pH 6); 0.328 in data set [1] (pH 6, modulator: ogerin); -0.054 in data set [1] (pH 6.5, modulator: ogerin). In addition, the surface expression score in data set [2] was determined as 0.522.

A316T: the cAMP reporter score stood at 0.495 in data set [1] (pH 5.5); 0.911 in data set [1] (pH 6, modulator: ogerin); 0.533 in data set [1] (pH 6.5, modulator: ogerin). In addition, in data set [2], the surface expression score amounted to 0.311.

Consider A316I, for which the cAMP reporter score was determined as 0.912 in data set [1] (pH 5.5); 0.886 in data set [1] (pH 6, modulator: ogerin); 0.823 in data set [1] (pH 6.5, modulator: ogerin). The surface expression score in data set [2] worked out at 1.4.

As for A316D, the cAMP reporter score was 0.596 in data set [1] (pH 5.5); -0.336 in data set [1] (pH 6); 0.855 in data set [1] (pH 6, modulator: ogerin). Moreover, the surface expression score in data set [2] came to 1.08.

As for A316G, the cAMP reporter score in data set [1] (pH 5.5) stood at 0.611; in data set [1] (pH 6) it was 0.519; in data set [1] (pH 6, modulator: ogerin) it was 1.04; in data set [1] (pH 6.5, modulator: ogerin), 0.746. In addition, the surface expression score in data set [2] came out at 1.18.

Consider A316F, for which the cAMP reporter score in data set [1] (pH 5.5) was 0.284; in data set [1] (pH 6) it was -0.217; in data set [1] (pH 6, modulator: ogerin), 0.393; in data set [1] (pH 6.5, modulator: ogerin), -0.033. For the same variant, in data set [2], the surface expression score turned out to be 0.105.

Consider A316M, for which the cAMP reporter score in data set [1] (pH 5.5) worked out at 1.5; in data set [1] (pH 6), 0.699; in data set [1] (pH 6, modulator: ogerin), 1.53; in data set [1] (pH 6.5, modulator: ogerin), 0.919. In data set [2], the surface expression score was 0.602.

In the case of A316W, the cAMP reporter score in data set [1] (pH 5.5) is -0.094; in data set [1] (pH 6, modulator: ogerin), 0.822; in data set [1] (pH 6.5, modulator: ogerin), 0.687. The surface expression score in data set [2] stood at 0.614.

For the variant A316L, the cAMP reporter score in data set [1] (pH 5.5) was 0.825; in data set [1] (pH 6), 0.217; in data set [1] (pH 6, modulator: ogerin) it was 0.703; in data set [1] (pH 6.5, modulator: ogerin), -0.131. Besides, in data set [2], the surface expression score amounted to 0.205.

As to A316Q, the cAMP reporter score in data set [1] (pH 5.5) was -0.76; in data set [1] (pH 6, modulator: ogerin), 0.229; in data set [1] (pH 6.5, modulator: ogerin) it was -0.313. Further, the surface expression score in data set [2] worked out at 0.523.

Take A316P: the cAMP reporter score in data set [1] (pH 5.5) is 0.337; in data set [1] (pH 6, modulator: ogerin), 0.657; in data set [1] (pH 6.5, modulator: ogerin), 2.23. For the same variant, in data set [2], the surface expression score came out at 1.42.

As for A316S, the cAMP reporter score in data set [1] (pH 5.5) stood at 0.052; in data set [1] (pH 6) it was 0.523; in data set [1] (pH 6, modulator: ogerin), 0.399; in data set [1] (pH 6.5, modulator: ogerin), 0.426. Also, in data set [2], the surface expression score worked out at 0.152.

A316V: the cAMP reporter score is -0.394 in data set [1] (pH 5.5); -0.515 in data set [1] (pH 6); -0.447 in data set [1] (pH 6, modulator: ogerin); -0.358 in data set [1] (pH 6.5, modulator: ogerin). Moreover, the surface expression score in data set [2] is -0.057.

A316H: the cAMP reporter score in data set [1] (pH 5.5) is -0.094; in data set [1] (pH 6), -0.596; in data set [1] (pH 6, modulator: ogerin), -0.209; in data set [1] (pH 6.5, modulator: ogerin), -0.015. The surface expression score in data set [2] is -0.224.

Consider A316R, for which the cAMP reporter score in data set [1] (pH 5.5) is 1.08; in data set [1] (pH 6) it was -0.052; in data set [1] (pH 6, modulator: ogerin) it was 0.506; in data set [1] (pH 6.5, modulator: ogerin), 0.866. Further, in data set [2], the surface expression score is 1.17.

Turning to A316E, the cAMP reporter score in data set [1] (pH 5.5) is 0.067; in data set [1] (pH 6), 0.11; in data set [1] (pH 6, modulator: ogerin), 0.193; in data set [1] (pH 6.5, modulator: ogerin) it was -0.024. Further, the surface expression score in data set [2] is -0.055.

Take A316C: the cAMP reporter score is -0.398 in data set [1] (pH 5.5); -0.593 in data set [1] (pH 6); -0.641 in data set [1] (pH 6, modulator: ogerin); -0.415 in data set [1] (pH 6.5, modulator: ogerin). In addition, the surface expression score in data set [2] is -0.453.

Regarding A316K, the cAMP reporter score in data set [1] (pH 5.5) came out at 2.21; in data set [1] (pH 6, modulator: ogerin), 1.99; in data set [1] (pH 6.5, modulator: ogerin) it was 2.3. For the same variant, in data set [2], the surface expression score was found to be 1.1.

C310W: the cAMP reporter score is 0.924 in data set [1] (pH 5.5); 1.01 in data set [1] (pH 6); 1.01 in data set [1] (pH 6, modulator: ogerin); 0.468 in data set [1] (pH 6.5, modulator: ogerin). In data set [2], the surface expression score is 0.151.

As to C310M, the cAMP reporter score was -0.492 in data set [1] (pH 5.5); -0.136 in data set [1] (pH 6, modulator: ogerin); 0.134 in data set [1] (pH 6.5, modulator: ogerin). In data set [2], the surface expression score is -0.83.

As to C310Y, the cAMP reporter score in data set [1] (pH 5.5) was 0.045; in data set [1] (pH 6), 0.112; in data set [1] (pH 6, modulator: ogerin) it was -0.015; in data set [1] (pH 6.5, modulator: ogerin) it was 0.091. For the same variant, the surface expression score in data set [2] is -0.385.

As for C310P, the cAMP reporter score worked out at 0.18 in data set [1] (pH 5.5) and 0.37 in data set [1] (pH 6.5, modulator: ogerin). Moreover, the surface expression score in data set [2] is -0.224.

As to C310S, the cAMP reporter score in data set [1] (pH 5.5) was 1.68; in data set [1] (pH 6), 2.6; in data set [1] (pH 6, modulator: ogerin), 2.05; in data set [1] (pH 6.5, modulator: ogerin) it was 2.97. Further, the surface expression score in data set [2] is 1.14.

Take C310K: the cAMP reporter score in data set [1] (pH 5.5) came to 2.01; in data set [1] (pH 6) it was 3.45; in data set [1] (pH 6, modulator: ogerin), 2.21; in data set [1] (pH 6.5, modulator: ogerin), 3.85. For the same variant, the surface expression score in data set [2] was found to be 0.799.

C310T: the cAMP reporter score came to 0.635 in data set [1] (pH 5.5); 1.42 in data set [1] (pH 6); 1.18 in data set [1] (pH 6, modulator: ogerin); 1.56 in data set [1] (pH 6.5, modulator: ogerin). Further, in data set [2], the surface expression score came to 0.263.

C310V: the cAMP reporter score was determined as 0.282 in data set [1] (pH 5.5); 1.01 in data set [1] (pH 6); 0.704 in data set [1] (pH 6, modulator: ogerin); 1.67 in data set [1] (pH 6.5, modulator: ogerin). For the same variant, the surface expression score in data set [2] is -0.741.

Regarding C310Q, the cAMP reporter score in data set [1] (pH 5.5) was -0.118; in data set [1] (pH 6) it was 0.881; in data set [1] (pH 6, modulator: ogerin), 0.263; in data set [1] (pH 6.5, modulator: ogerin), 0.707. Further, in data set [2], the surface expression score was -0.974.

On to C310N, for which the cAMP reporter score amounted to 2.02 in data set [1] (pH 5.5); 1.65 in data set [1] (pH 6, modulator: ogerin); 2.77 in data set [1] (pH 6.5, modulator: ogerin). In data set [2], the surface expression score stood at 0.264.

With C310R, the cAMP reporter score stood at 0.978 in data set [1] (pH 5.5); 1.7 in data set [1] (pH 6, modulator: ogerin); 2.72 in data set [1] (pH 6.5, modulator: ogerin). The surface expression score in data set [2] came out at 1.67.
